Laboratory results from PMC4336329 (PLoS ONE, 2015).
Among all 310,000 compounds or so, about 2,200 (0.71%) showed an effect of 50% or more. Effects have a minus sign here. This is one part of the list.

Target: human ether-à-go-go-related gene (hERG) potassium channel (human, UniProt Q12809)
Assay: primary screen, population patch clamp on CHO cells stably expressing hERG

Sequence of human ether-à-go-go-related gene (hERG) potassium channel (Q12809 whole entry, looked up): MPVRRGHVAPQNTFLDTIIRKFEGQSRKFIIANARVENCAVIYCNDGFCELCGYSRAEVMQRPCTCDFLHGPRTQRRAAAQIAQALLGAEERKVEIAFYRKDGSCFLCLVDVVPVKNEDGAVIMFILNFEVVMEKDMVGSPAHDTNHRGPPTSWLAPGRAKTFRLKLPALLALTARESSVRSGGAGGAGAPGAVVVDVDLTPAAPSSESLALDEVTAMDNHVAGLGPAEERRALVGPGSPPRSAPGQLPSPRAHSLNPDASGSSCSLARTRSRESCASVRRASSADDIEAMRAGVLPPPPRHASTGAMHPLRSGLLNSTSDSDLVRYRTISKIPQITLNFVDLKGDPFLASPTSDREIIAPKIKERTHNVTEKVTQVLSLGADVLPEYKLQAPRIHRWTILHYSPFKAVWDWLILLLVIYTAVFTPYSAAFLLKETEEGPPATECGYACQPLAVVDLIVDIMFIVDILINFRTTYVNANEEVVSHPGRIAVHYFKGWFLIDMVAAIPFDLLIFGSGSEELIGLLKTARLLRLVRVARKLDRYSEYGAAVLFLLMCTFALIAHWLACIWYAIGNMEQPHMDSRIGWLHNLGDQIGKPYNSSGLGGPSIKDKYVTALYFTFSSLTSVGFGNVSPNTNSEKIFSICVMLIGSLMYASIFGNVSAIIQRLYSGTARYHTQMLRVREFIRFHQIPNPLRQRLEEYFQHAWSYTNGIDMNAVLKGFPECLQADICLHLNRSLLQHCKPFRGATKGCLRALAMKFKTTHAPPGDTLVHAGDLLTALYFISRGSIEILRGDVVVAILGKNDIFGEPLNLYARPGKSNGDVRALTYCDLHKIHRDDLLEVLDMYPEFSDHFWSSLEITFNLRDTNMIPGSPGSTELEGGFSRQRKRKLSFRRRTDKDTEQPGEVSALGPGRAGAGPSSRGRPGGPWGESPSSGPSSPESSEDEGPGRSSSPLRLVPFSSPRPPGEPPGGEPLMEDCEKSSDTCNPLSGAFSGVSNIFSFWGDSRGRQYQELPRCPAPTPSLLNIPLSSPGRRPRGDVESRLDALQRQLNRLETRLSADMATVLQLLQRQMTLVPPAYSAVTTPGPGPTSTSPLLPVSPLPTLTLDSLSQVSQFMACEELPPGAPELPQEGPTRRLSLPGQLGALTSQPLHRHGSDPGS

SMILES | hERG current change (%, negative = inhibition) at 1uM
COc1cc(C(=O)O/N=C2/C=C(C)C(=O)C=C2C)cc(OC)c1OC | 4.89%
O=C(CNC(=O)c1ccccc1F)OCc1csc(-c2ccccc2)n1 | 6.6%
CCOC(=O)c1cn(Cc2ccccc2)c(C(=O)OC(C)(C)C)c1O | 12.4%
O=S(=O)(Cc1ccccc1)NCc1cccnc1 | -5.55%
Cc1ccccc1NC(=O)COC(=O)C1(C)CC1(Cl)Cl (stereo not shown) | -1.44%
COc1cc(CC(=O)OCC(=O)NCC(C)C)cc(OC)c1OC | 13.6%
Cc1ccc(CNC(=O)COC(=O)c2cccc(S(=O)(=O)N3CCCCC3)c2)cc1 | -4.91%
Cc1ccccc1N(CC(=O)N/N=C/c1cc(C)n(-c2ccccc2C)c1C)S(C)(=O)=O | 9.8%
NS(=O)(=O)c1ccc(N=Nc2c(=O)[nH]n3c(=O)c4c([nH]c23)CCCC4)cc1 | 20.6%
Cc1csc(NC(=O)CCc2ccc(S(=O)(=O)N3CCOCC3)cc2)n1 | 0.101%
O=C(Nc1ccc(S(=O)(=O)O)cc1)c1ccc2c(c1)S(=O)(=O)c1ccccc1C2=O | 16.7%
COc1ccc(CCN=c2c([N+](=O)[O-])nn(-c3cccc(C)c3)n2O)cc1OC | -6.3%
O=C1CCc2cc(S(=O)(=O)Nc3ccc(F)cc3)cc3c2N1CC3 | 6.99%
COc1cc(OC)cc(C(=O)NCC2CCCN(C(=O)c3csc(C)n3)C2)c1 (stereo not shown) | 10.6%
CC(=O)c1c(C)[nH]c(C(=O)CN2C(=O)NC(C)(c3ccc4c(c3)OCO4)C2=O)c1C (stereo not shown) | 6.27%
CCCC(=O)NC(c1ccc(OCC)cc1)c1ccc(OC)c(OC)c1 (stereo not shown) | 11.9%
O=C(CSc1nc2cc(Cl)ccc2s1)N1CCCc2ccccc21 | 3.83%
CN(CCC#N)C(=O)CC(Cc1ccccc1)C1CCOC(C)(C)C1 (stereo not shown) | 7.81%
Cc1ccc(C(=O)Nc2ccc(N3CCN(C(=O)c4ccco4)CC3)cc2)cc1 | 6.36%
Cc1ccc(C)c(NC(=S)N(CCc2ccncc2)C(C)C)c1 | -11.9%
O=C(COC(=O)c1ccc(-c2ccc([N+](=O)[O-])cc2)o1)NC(=O)NC12CC3CC(CC(C3)C1)C2 | 11.2%
COC(=O)CCC(=O)OC1(C)C(=O)C2=CN(CC(C)C)C(c3ccc(OC)cc3)=CC2=C(Br)C1=O (stereo not shown) | 7.2%
O=C(/C=C/c1ccc(Cl)cc1Cl)NCCSCc1ccccc1 | 4.86%
CCCNCc1cc(OC)c(OCC(=O)Nc2ccccc2)cc1Br.Cl | -14.3%
CCC(C)c1ccc(NC(=S)Nc2ccc(OC)cc2C)cc1 (stereo not shown) | -0.377%
O=c1[nH]c(SCCOc2cccc3ccccc23)nc2ccccc12 | 21.2%

SMILES | hERG current change (%, negative = inhibition) at 1uM
Cc1ccc2c(c1)N(C(C)C(=O)NCCc1ccccc1)C(=O)CO2 (stereo not shown) | 12.1%
CC(NCC(=O)Nc1cc(S(=O)(=O)N2CCCCCC2)ccc1Cl)c1ccccc1.O=C(O)C(=O)O (stereo not shown) | 4.83%
S=C(Nc1ccc(N2CCOCC2)cc1)Nc1ccc2nc(-c3ccco3)c(-c3ccco3)nc2c1 | 5.05%
Cc1ccc(Cl)cc1Nc1nc(-c2sc(NC(=O)C(C)(C)C)nc2C)cs1 | -12.4%
Cc1nn(C)cc1S(=O)(=O)Nc1ccc2c(c1)OCCO2 | 6.99%
COc1ccc(N2CCN(C(=O)c3ccc(N(C)S(=O)(=O)c4ccc(C)cc4)cc3)CC2)cc1 | 2.36%
CC(C)=C1C(=O)NN(c2ccc(C)c(Cl)c2)C1=O | 17.7%
CCCCc1nc2cc(C(=O)N3CCCCC3C(=O)OC)ccc2o1 (stereo not shown) | 8.54%
Cc1cccc(N2CCN(C(=O)CCc3nc4ccccc4[nH]3)CC2C)c1 (stereo not shown) | 2.61%
CCOC(=O)c1c(C)[nH]c(C2=NNC(=Nc3ccc(OCC)cc3)SC2)c1C | 17.7%
COc1cccc(NS(=O)(=O)c2ccc3c(c2)NC(=O)C(C)C(=O)N3)c1 (stereo not shown) | 10%
CC(C)c1ccc(NC2CCCN(C(=O)CCN3Cc4ccccc4C3=O)C2)cc1 (stereo not shown) | -0.383%
CCc1cccc2c(C(=O)C(NCCOC)c3ccccc3)c[nH]c12 (stereo not shown) | 10.7%
COc1c(Br)cc([N+](=O)[O-])c(OC)c1C(=O)NC(=O)Nc1nc(C)cc(C)n1 | 5.64%
C#CCOCCOCCOCCNc1nc(N2CCN(C(=O)[C@H](CCC(=O)O)n3cc(C(N)Cc4ccc(O)cc4)nn3)CC2)nc(N2CCN(C(=O)[C@H](CCC(=O)O)n3cc(C(N)CC(C)C)nn3)CC2)n1.Cl (stereo partly shown) | 8.94%
CCN(C(=O)C(C)N1C(=O)/C(=C/c2ccco2)SC1=S)C1CCS(=O)(=O)C1 (stereo not shown) | -1.05%
O=C(NCCCSc1ccccc1)c1cnc(Cl)c(Cl)c1 | 5.05%
CN1CCC(N(C)C(=O)c2cc(=O)c3ccccc3o2)CC1 | 7.98%
COc1cc(-c2nnc(CSc3nnc4nc(C)cc(C)n34)o2)cc(OC)c1OC | 12.6%
O=C1NC(=O)/C(=C/c2ccc(OS(=O)(=O)c3ccc(F)cc3F)cc2)N1 | 13.2%
CN(C)c1c(N)[nH]c2c(c1=O)c(=O)n(C)c(=O)n2C | -0.391%
CC(=O)Nc1ccc(Nc2ncnc3c2cnn3-c2cccc(C)c2)cc1 | 9.23%
CCOC(=O)CNC(=O)CSc1nc2nc(C)c(Br)cc2[nH]1 | 6.5%
CC(c1ccon1)N(C)C(=O)c1ccc(OC2CCN(C(=O)C3CC3)CC2)cc1 (stereo not shown) | 7.78%
CCOc1ccccc1N1CCN(C(=O)c2c(C)noc2C)CC1 | 8.11%
O=C(CCS(=O)(=O)c1ccc(Br)cc1)NCc1cccs1 | 7.69%
